Assay results taken from PubChem BioAssay AID504832 (National Center for Advancing Translational Sciences (NCATS), 2011).
Screen size: about 310,000 compounds; about 18,000 (5.8%) were called active. The inconclusive results got no clear call from the source; some entries with a clear call stand among them for comparison. The call rests on the fitted dose curve; in most records, active means well fitted inhibition curve with a large enough effect; inconclusive means small, poorly fitted or top-dose-only effect, or another doubt; inactive means no such curve, though single readings can be large or run the other way. Potencies of inconclusive entries are left out as doubtful fits.
Potency means the concentration at half of the fitted maximal effect; tags describe the fitted curve by direction and shape.

Assay: Primary qHTS for delayed death inhibitors of the malarial parasite plastid, 48 hour incubation
Conditions: P. falciparum luciferase growth in erythrocytes; series mostly up to 28.7 µM
Procedure, shortened: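 Luminescence readout; reporter = integrated firefly luciferase in P. falciparum. RBC culture at 2% hematocrit, 0.1% parasitemia final, 37 C/5% CO2; decreased signal taken as growth inhibition.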
With `Cc1ccc(Nc2ccccc2)nn1` the Potency was “inactive”. In the case of `CC1=Nc2cc(C(=O)N3CCCC3)ccc2Sc2c(C)ccc(C)c21`, the Potency is reported as inconclusive [inhibitor, partial curve, poor fit]. For `Fc1cccc(NCc2cn3ccccc3n2)c1`, the Potency was “inactive”. With `CCN(CC)CCOC(=O)c1ccc(NC(=O)c2ccc(Cl)c(S(=O)(=O)N3CCCCCC3)c2)cc1` the Potency was inconclusive [inhibitor, single point]. For `Cc1nn(C)cc1NC(=O)CC12CC3CC(CC(C3)C1)C2`, the Potency was “inactive”. For `NC(=O)C1CCN(C(=O)CSCc2ccccc2Cl)CC1`, the Potency was “inactive”. With `CCOc1ccc(CCNC(=O)C2CC(=O)N(c3ccc4c(c3)OCCO4)C2)cc1OCC` (configuration not stated) the Potency was inconclusive [inhibitor, single point]. In the case of `N#Cc1ccc(CSC2=NCCN2)cc1`, the Potency is reported as inconclusive [inhibitor, single point]. With `O=C(NNC(=O)c1cccnc1)Nc1ccc(Cl)c(Cl)c1` the Potency was “inactive”. In the case of `O=C(N/N=C/c1cnc2ccccc2n1)c1cccc(F)c1`, the Potency is reported as “inactive”. In the case of `Cc1cc(C)n2c(SC/C(O)=C(\C#N)c3nc4ccccc4[nH]3)nnc2n1`, the Potency is reported as inconclusive [inhibitor, single point]. In the case of `Cc1cc(/C([O-])=C(/C(=S)Nc2ccc(F)cc2)[n+]2ccccc2)c(C)n1Cc1ccccc1Cl`, the Potency is reported as inconclusive [inhibitor, partial curve]. For `Cc1ccc2oc(C(=O)N(CCO)Cc3ccccc3)c(C)c2c1`, the Potency was “inactive”. With `Cc1cc(F)ccc1S(=O)(=O)Nc1ccccc1C(=O)NC1CCN(Cc2ccccc2)CC1` the Potency was active: 2.94 µM. With `COc1ccccc1OCC(=O)Nc1ccccn1` the Potency was “inactive”. With `CCOC(=O)c1sc(NC(=O)CSc2nc(C)cc(-c3ccccc3)n2)c(C#N)c1C` the Potency was “inactive”. With `Cc1occc1-c1nnc(SCC(=O)Nc2ccccc2)n1C` the Potency was “inactive”. For `CCn1c2ccccc2c2cc(NC(=O)CSc3nnc(-c4ccccc4OC)n3N)ccc21`, the Potency was inconclusive [inhibitor, single point]. In the case of `Cc1ccc2nc(NC3=NCN(Cc4cccnc4)CN3)nc(C)c2c1`, the Potency is reported as inconclusive [inhibitor, partial curve, poor fit]. For `O=C(c1ccco1)N1CCN(Cc2cc(=O)c(OCc3ccccc3Cl)co2)CC1`, the Potency was inconclusive [inhibitor, partial curve]. In the case of `Cc1ccc(/C=C/C(=O)Nc2nn[nH]n2)o1`, the Potency is reported as “inactive”. For `CCN(CC(=O)Nc1ccccc1C(F)(F)F)C(=O)c1ccc2[nH]c3c(c2c1)CC(C)CC3` (configuration not stated), the Potency was active: 14.7 µM.
